For 105 molecules, displacement results are on record in PubChem BioAssay AID1240 (Sanford-Burnham Center for Chemical Genomics, 2008).

Hit rate of the full screen: of about 50,000 compounds, about 800 (1.6%) showed an effect of 50% or more. The list shows a part of the results.

For this test, the target named is Bcl-2-like protein 10 (Homo sapiens) (UniProt Q9HD36). As to the kind of experiment: TR3 peptide-Bcl-B binding displacers, biochemical primary FP assay, phenotype converters (AID 1240).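 Note: 0% = Bcl-B with tracer peptide and DMSO and 100% = tracer peptide lacking Bcl-B.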 The conditions noted are these: GST-Bcl-B / FITC-TR3 peptide fluorescence polarization; stronger effect = higher value; compound at 3.75 mg/L.
UniProt Q9HD36, sequence (Q9HD36 whole entry, looked up): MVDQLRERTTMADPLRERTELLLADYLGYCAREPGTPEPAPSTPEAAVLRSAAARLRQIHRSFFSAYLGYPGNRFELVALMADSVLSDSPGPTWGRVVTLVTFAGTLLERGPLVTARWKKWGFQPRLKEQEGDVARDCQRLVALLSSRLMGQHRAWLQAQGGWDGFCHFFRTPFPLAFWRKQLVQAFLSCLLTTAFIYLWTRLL
As to `Cc1ccnc(SCC(=O)Nc2ccccc2)n1`, the displacement was 1.9%. The figure for `COC(=O)Nc1ccc(S(=O)(=O)N2C(C)CCCC2C)cc1` (stereo not given) is -7.3%; for `O=C(N/N=C/c1c[nH]c2ccccc12)c1cc(C23CC4CC(CC(C4)C2)C3)[nH]n1` it is -11.9%.

As for `CCOc1ccc(N=C2c3ccc([N+](=O)[O-])cc3C(=O)C2C(C)=O)cc1` (stereo not given), the displacement turned out to be 0.7%.

As for `CC(C)C(=O)N1N=C(c2ccc(Br)cc2)CC1(O)C(F)(F)F` (stereo not given), the displacement is -4.5%. Then `COc1cc(CN2CCN(C3CCCCC3)CC2)cc(OC)c1OC`, with 5.9%; and `COC(=O)c1cc(NC(=O)c2cc(Cl)ccc2[N+](=O)[O-])cc(C(=O)OC)c1`, with 4%. The figure for `O=C(NC(=S)Nc1cc([N+](=O)[O-])cc(Cl)c1O)c1ccc(F)cc1` is 15.4%; for `N#C/C(=C/c1c(F)cccc1Cl)C(=O)Nc1ccc(Cl)cc1` it is 2.1%; for `CC(C)=C(NC(=O)c1ccccc1)C(=O)Nc1cccc(C)c1` it is -11.8%. For the molecule `COc1ccc(-c2cc(=O)n3[nH]c(-c4ccccc4)cc3n2)cc1`, the displacement is -0.9%. `O=C(COC(=O)c1ccc(N2C(=O)c3ccccc3C2=O)cc1)COC(=O)c1ccc(N2C(=O)c3ccccc3C2=O)cc1`: the displacement worked out at 8.3%. Then `Cc1ccc(NC(=O)c2ccc([N+](=O)[O-])cc2NC(=O)c2ccccc2)c(C)c1`, with -3%; and `COc1ccc(OC)c(NC(=O)COc2ccc3ccccc3c2)c1`, with -13.3%; and `COc1ccc(Br)cc1C(=O)Nc1cccc(-c2nc3ccccc3[nH]2)c1`, with 6.7%. As for `O=C1C(Cl)=C(Nc2ccccc2)C(=O)N1c1cccc(Cl)c1Cl`, the displacement was 11.4%. In the case of `COc1cccc(CN2CCN(S(=O)(=O)c3ccc(Cl)cc3)CC2)c1`, the displacement was -1.6%. For the molecule `O=C1OC(c2ccc(Br)cc2)=N/C1=C\c1ccc(OC(=O)c2ccccc2F)cc1`, the displacement was -12.9%. On to `CCOC(=O)C(=C/C(C)=C/c1ccco1)C(=O)OCC`, for which the displacement came out at 8.3%. Take `O=C1CC(c2ccccc2)CC2=C1C(c1ccc(OC(F)(F)F)cc1)Nc1ccccc1N2` (stereo not given): the displacement was 8.8%. Then `C=CCn1c(SCC(=O)NCCCO)nc2sc(C)c(C)c2c1=O`, with 0%; and `O=C1OC(c2ccccc2)=C/C1=C/c1ccc(-c2ccc([N+](=O)[O-])cc2Br)o1`, with -18.7%. For `Nc1nnc(COc2ccc(Br)cc2)s1`, the displacement was found to be 6%. `COc1ccc(NS(=O)(=O)c2cccc([N+](=O)[O-])c2)cc1Cl`: the displacement was -3.9%. The figure for `CCN(CC)C(=O)Sc1nc2ccccc2s1` is -4.8%. Then `O=[N+]([O-])c1ccc(N2CCN(CCO)CC2)cc1NCCc1ccccc1`, with 5.4%; and `CN(C)c1ccc(/C=C/c2nc3ccccc3c(=O)n2-c2cccc3ccccc23)cc1`, with 105%; and `C/C(=N\N=C1\NC(=O)C(CC(=O)Nc2ccc(Cl)cc2Cl)S1)c1ccc([N+](=O)[O-])cc1` (stereo not given), with -0.3%.

`O=C(CN1C(=O)/C(=C\c2ccccc2F)SC1=S)Nc1ccccc1C(=O)O`: the displacement was determined as 6.3%.

Consider `O=C(O)CCCN1C(=O)C(=O)/C(=C(/O)c2ccccc2)C1c1ccc([N+](=O)[O-])cc1` (stereo not given), for which the displacement is -18.2%. Turning to `Cc1c(NC(=O)c2ccccc2Br)cccc1-c1nc2ccccc2o1`, the displacement came to 3.4%. The figure for `Brc1ccc(/C=N/c2ncn[nH]2)cc1` is -13.9%; for `Cc1cc(C)n(-c2cc(Nc3ccccc3)nc(-c3ccccc3)n2)n1` it is 2.1%. Turning to `CC1CN(CC(O)COc2ccc3ccccc3c2)CC(C)O1` (stereo not given), the displacement turned out to be 0.2%. The figure for `COc1cc(NC(=O)Cn2nc(C)c([N+](=O)[O-])c2C)c(OC)cc1Cl` is -8.5%; for `CCOc1ccc(Cc2c(O)nc(N)[nH]c2=O)cc1` it is 10.2%. Then `Cc1ccc(NC(=O)c2ccc(-c3cc(Cl)ccc3Cl)o2)c([N+](=O)[O-])c1`, with 2.1%. Regarding `Cc1c(Cl)cccc1NC(=O)C(=O)NCC1CCCO1` (stereo not given), the displacement was 10.9%. For `CCc1ccccc1NC(=O)c1c(NC(=O)c2ccco2)sc2c1CCC2`, the displacement turned out to be 12.1%. The figure for `CCn1c(-c2ccc(OC)cc2)n[nH]c1=S` is -1.8%.

For `Cn1cnnc1SCC(=O)c1ccccc1`, the displacement stood at 15.5%.

For the molecule `CCc1ccccc1NC(=O)CN(c1cccc(C(F)(F)F)c1)S(C)(=O)=O`, the displacement was 1.7%.

`COc1ccc(C(=O)Nc2ccc(N3CCCCC3)c(Cl)c2)cc1OC`: the displacement was -55.4%.

In the case of `Cc1ccc(-c2noc(-c3ccc(C)cc3)n2)cc1`, the displacement came to 9.1%. Take `O=C(NCc1ccccc1)/C(NC(=O)c1ccccc1)=C1\c2ccccc2-c2ccc([N+](=O)[O-])cc21`: the displacement was 1.7%. Take `O=C(Nc1ccccc1)Nc1ccc(S(=O)(=O)N2CCCC2)cc1`: the displacement is 1.5%.

Regarding `COc1ccc(C2Nc3ccccc3C(=O)N2Cc2ccco2)cc1COc1ccc([N+](=O)[O-])cc1` (stereo not given), the displacement was 13.9%.

Take `O=C(Nc1ccc2c(c1)oc1ccccc12)c1c(Cl)cccc1Cl`: the displacement turned out to be 1.4%. Then `CN(C)c1ccc(/C=N/S(=O)(=O)CCc2ccccc2)cc1`, with -10%.

As to `CCCC(C)NC(=O)c1ccc(Cl)c([N+](=O)[O-])c1` (stereo not given), the displacement is -0.1%. The figure for `COc1ccc(/C=N/n2cn[nH]c2=S)cc1OC` is -5.1%; for `Cc1c(-c2ccccc2)nc2ccccc2c1C(=O)Nc1ccc(F)cc1F` it is 4.1%; for `Cc1ccc(C2=NNC(c3ccc(F)cc3)S2)cc1` (stereo not given) it is -5.6%.

As for `CCOc1ccc(-c2cc(C(=O)Nc3ncn[nH]3)c3ccccc3n2)cc1`, the displacement was -1.4%. Then `CC1C(c2ccc(N(C)C)cc2)NC(c2ccc(N(C)C)cc2)C(C)C1O` (stereo not given), with 11.5%; and `O=C(Nc1cccc(-c2nc3ccccc3s2)c1)c1ccc(Cl)cc1Cl`, with 2%; and `O=C1C=C(C(c2ccccc2)c2ccccc2)C(=O)c2ccccc21`, with 11.7%. Then `COc1ccc(C(=O)NC2CCC(CC3CCC(NC(=O)c4ccc(OC)c(OC)c4)CC3)CC2)cc1OC` (stereo not given), with 8.9%; and `Cc1cc(C)nc(Nc2nc3ccccc3[nH]2)n1`, with 13.9%; and `COc1cc(/C=C2\C(=O)NC(=O)N(c3ccc(Cl)cc3)C2=O)c(Br)cc1O`, with 2.7%. The figure for `CC(C)C12CN3CC(C(C)C)(CN(C1)C3c1ccc(O)cc1O)C2=O` (stereo not given) is 7.8%. Regarding `Cc1ccc(S(=O)(=O)N2CCN(Cc3cccn3C)CC2)cc1`, the displacement was -1.2%.

In the case of `COc1cccc(C2NC(=O)NC(C)=C2C(=O)OCCc2ccccc2)c1OC` (stereo not given), the displacement turned out to be 0.6%. The figure for `CCCCOc1ccc(C(=O)Nc2sc(C)c(CC)c2C(N)=O)cc1` is 9%. Then `CCOc1cc(/C=C2/SC(=S)N(CC)C2=O)ccc1OCc1ccc(Cl)cc1`, with 24.7%. Then `Cc1ccc(N(CC(=O)N2CCOCC2)S(=O)(=O)c2ccc(F)cc2)cc1`, with 7%; and `CC(=O)Oc1ccc2c3c(c(=O)oc2c1OC(C)=O)CCCC3`, with 4.4%. `Cc1cccc(N2C(=O)c3ccc(-c4nc5ccccc5c(=O)o4)cc3C2=O)c1C`: the displacement was found to be 6.9%. Consider `Cc1cc(S(=O)(=O)c2ccc(Cl)cc2)c(C)c(S(=O)(=O)N2CCOCC2)c1`, for which the displacement was -5.1%. Consider `CC(C)c1c(O)nc(SCCN(C)C)[nH]c1=O`, for which the displacement was -52.5%. Take `O=S(=O)(/C=C/c1ccccc1)N1CCN(C/C=C/c2ccccc2)CC1`: the displacement is -16.6%. The figure for `Cc1ccc(NC(=O)C(=O)N/N=C/c2cccs2)cc1C` is 6.4%; for `COc1ccc(OC)c(N2C(=O)C3C4C=CC(CC4)C3C2=O)c1` (stereo not given) it is -6%. Then `COc1ccc(CCNC(=O)N2C(=O)C=CC2=O)cc1OC`, with -4.6%. Regarding `O=C(Nc1cc(C(F)(F)F)cc(C(F)(F)F)c1)c1ccc(Br)o1`, the displacement is -2.9%. The figure for `COc1ccc(/C=C/c2cc[n+](C)cc2)cc1` is 0.7%; for `COc1cccc(N2C(=O)C(=O)/C(=C(\O)c3ccccc3)C2c2ccc(F)cc2)c1` (stereo not given) it is 2.1%; for `Clc1ccccc1-c1nc(-c2ccccn2)no1` it is -8.5%. In the case of `CCOc1ccc(S(=O)(=O)N(CC(=O)Nc2ccc(Cl)cc2)c2ccc(C)cc2)cc1`, the displacement came out at 14.1%. The figure for `COc1ccc(N2C(=O)/C(=C\c3ccccc3C)SC2=S)cc1` is 1.6%; for `O=C(CSc1nc2sc3c(c2c(=O)n1-c1ccccc1)CCC3)Nc1ccccc1[N+](=O)[O-]` it is -2.8%.

For the molecule `O=C(Nc1cccc(CCc2ccccn2)c1)Nc1cccc2ccccc12`, the displacement was -0.7%. `Cc1cccc(C(=O)Nc2ccc(S(=O)(=O)Nc3nccs3)cc2)c1`: the displacement worked out at 9.9%.

`O=C(COc1ccccc1[N+](=O)[O-])Nc1ccc2oc(-c3cccc(F)c3)nc2c1`: the displacement turned out to be 8.3%. Consider `Cc1onc(-c2ccccc2Cl)c1C(=O)Nc1ccc(C(C)C)cc1`, for which the displacement turned out to be 10.1%. Turning to `COc1ccc(C2NC(=S)NC(C)=C2C(=O)Nc2ccc(Cl)cc2)cc1OC` (stereo not given), the displacement is -5.7%. In the case of `CCN1C(=O)/C(=C\c2cc(OC)c(OC)c(OC)c2)SC1=S`, the displacement was -6.5%.

Take `O=C(NNS(=O)(=O)c1ccc2ccccc2c1)c1ccc(Cl)cc1`: the displacement was -4.5%.

For `CCOC(=O)C1C(=O)C=C(Nc2ccc(OC)cc2)CC1c1ccccc1` (stereo not given), the displacement is 2.2%. Then `O=C(N/N=C/c1ccco1)c1cc(-c2ccc3ccccc3c2)n[nH]1`, with -13.5%. Consider `C=C(C)CN1CCN(S(=O)(=O)c2ccc3c(c2)Cc2cc(S(=O)(=O)N4CCN(CC(=C)C)CC4)ccc2-3)CC1`, for which the displacement was 31.6%.

Turning to `Cc1ccc2nc(-c3ccc(N)cc3)oc2c1`, the displacement is 11.1%. As for `Cc1ccc(C(=O)/C=C/Nc2cccc(O)c2)cc1`, the displacement was -0.4%. The figure for `COc1ccccc1/C=C1\C(=O)NC(=S)N(c2ccc(Br)cc2)C1=O` is 13.6%.

As to `O=C1S/C(=C\c2ccco2)C(=O)N1Cc1ccccc1`, the displacement is -6%. For `Cc1cc(C)cc(N2C(=O)NC(=O)/C(=C\c3cc(Br)c(O)c([N+](=O)[O-])c3)C2=O)c1`, the displacement was 3.6%. The figure for `CC(=O)c1ccc(NC(=O)/C=C/c2cccc([N+](=O)[O-])c2)cc1` is 3%; for `Cn1c(=O)c2c(nc(NCc3ccccc3)n2C)n(C)c1=O` it is -2.7%. The figure for `CCOC(=O)C(=CNc1ccc(C(C)C)cc1)C(=O)OCC` is -3.8%. Turning to `O=C(CN1C(=O)/C(=C/c2ccccc2)SC1=S)Nc1cccc(O)c1`, the displacement is 35.7%. The figure for `COc1ccc2oc(C)c(C(=O)O)c2c1` is 22.6%; for `CCOC(=O)Nc1ccc(Br)cc1C(c1ccccc1)N(CC(=O)OC)C(=O)OCC` (stereo not given) it is 21.2%; for `CCCn1c(C(O)c2ccc(N(C)C)cc2)nc2ccccc21` (stereo not given) it is 5.3%.

Regarding `COC(=O)COc1c(Cl)cc(/C=C(/C#N)C(=O)Nc2cccc(Br)c2)cc1Cl`, the displacement is -15.1%. The figure for `COc1ccc(-n2c(=O)c3c4c(sc3n3c(SCCC(C)C)nnc23)CCCC4)cc1` is 89.8%.
